This assay has as its target C3 convertase (CVF:Bb) (Homo sapiens, UniProt P00751). Kind of assay: biochemical.

Experimental findings from patent publication US20260216175A1, “COMPLEMENT INHIBITION” (Apellis Pharmaceuticals, Inc., priority 2023, published 2026) are described below.

In general, IC50 refers to the concentration needed to halve the response being measured.

Take `COc1cc(C)c2[nH]ccc2c1CN1CCN(CC(F)F)CC1c1ccc(C(=O)O)c(N[C@@H](C)C(F)(F)F)c1` (stereo partly drawn): the IC50 was 940 nM.
Next, `COc1cc(C)c2[nH]ccc2c1CN1CCN(C)C(C(F)F)CC1c1ccc(C(=O)O)cc1` (stereo not drawn): 9290 nM; `COc1cc(C)c2[nH]ccc2c1CN1CCN(CCC(F)(F)F)C[C@H]1c1ccc(C(=O)O)c(O)c1`: 47.8 nM.
With `COc1cc(C)c2[nH]ccc2c1CN1CCN(CCC(F)(F)F)CC1c1ccc(C(N)=O)c(C#N)c1` (stereo not drawn) the figure was 23400 nM.
With `COc1cc(C)c2[nH]ccc2c1CN1CCN(CC(F)F)C[C@H]1c1ccc(C(=O)O)c(NCC2COC2)c1` the figure was 400 nM; with `COc1cc(C)c2[nH]ccc2c1CN1CCN(CC(F)F)C[C@@H]1c1ccc(C(=O)O)c(NCC2CC2)c1`, 40900 nM.
`COc1cc(C)c2[nH]ccc2c1CN1CCN(CC(F)F)CC1c1ccc(C(=O)O)c(N)c1` (stereo not drawn) gave a half-inhibitory concentration (IC50) of 103 nM.
With `COc1cc(C)c2[nH]ccc2c1CN1CCN(C)CC[C@H]1c1ccc(C(=O)NS(C)(=O)=O)cc1` the figure was 76 nM.
With `COc1cc(C)c2[nH]ccc2c1CN1CCN(CCC(F)(F)F)C[C@@H]1c1ccc(C(=O)O)c(N2CCCC2=O)c1` the figure was 7030 nM; with `COc1cc(C)c2[nH]ccc2c1CN1CC2CCC(C(F)F)N2CC1c1ccc(C(=O)O)cc1` (stereo not drawn), 493 nM.
On to `CCC(=O)Nc1cc([C@@H]2CN(CC(F)F)CCN2Cc2c(OC)cc(C)c3[nH]ccc23)ccc1C(=O)O`, for which it took 1260 nM to reach half-maximal inhibition (IC50).
For `COc1cc(C)c2[nH]ccc2c1CN1CCN(CCC(F)(F)F)C[C@@H]1c1ccc(C(N)=O)c(N)c1`, the IC50 stood at 119000 nM.
In turn, `CCc1cc([C@H]2CN(CC(F)F)CCN2Cc2c(OC)cc(C)c3[nH]ccc23)ccc1C(=O)O` gave an IC50 of 388 nM.
`COc1cc(C)c2[nH]ccc2c1CN1CCN(CCC(F)(F)F)C[C@@H]1c1ccc(C(=O)O)c(C#N)c1` showed an IC50 of 54900 nM.
Next, `COc1cc(C)c2[nH]ccc2c1CN1CCN(CCC(F)(F)F)C[C@@H]1c1ccc(C(=O)O)c(N(C)C)c1`: 29100 nM; `COc1cc(C)c2[nH]ccc2c1CN1CCN(CC(F)F)C[C@H]1c1ccc(C(=O)O)c(O)c1`: 202 nM.
`COc1cc(C)c2[nH]ccc2c1CN1CCN(C)C(C(F)(F)F)CC1c1ccc(C(=O)O)cc1` (stereo not drawn) showed a 50% inhibitory concentration (IC50) of 34300 nM.
Regarding `COc1cc(C)c2[nH]ccc2c1CN1CCN(CC(F)F)CC1c1ccc(C(=O)O)c2c1OCC(=O)N2` (stereo not drawn), 989 nM corresponded to half-maximal inhibition (IC50). Compared with the last compound, the IC50 is about 35-fold lower.
With `CCN1CC[C@@H](c2ccc(C(=O)O)cc2)N(Cc2c(OC)cc(C)c3[nH]ccc23)CC1` the figure was 149 nM.
Next, `COc1cc(C)c2[nH]ccc2c1CN1CCN(CC(F)(F)F)CC1c1ccc(C(=O)O)c(F)c1` (stereo not drawn): 681 nM.
Next, `COc1cc(C)c2[nH]ccc2c1CN1CC2CC(F)(F)CCN2CC1c1ccc(C(=O)O)cc1` (stereo not drawn): 1410 nM; `COc1cc(C)c2[nH]ccc2c1CN1CCCN(CC(F)(F)F)C[C@H]1c1ccc(C(=O)O)cc1`: 33.5 nM.
Regarding `COc1cc(C)c2[nH]ccc2c1CN1CCN(CC(F)F)C[C@@H]1c1ccc(C(=O)O)c(N)c1`, the concentration for half-maximal inhibition (IC50) worked out at 505 nM. This IC50 is about 15-fold higher than that of the compound before.
`COc1cc(C)c2[nH]ccc2c1CN1C[C@H]2C[C@H]3C[C@H]3N2C[C@H]1c1ccc(CO)cc1` showed an IC50 of 71900 nM.
For the compound `COc1cc(C)c2[nH]ccc2c1CN1CCN(CC(F)F)C[C@@H]1c1ccc(C(=O)O)c2c1OCCO2`, the IC50 was 96900 nM.
In turn, `COc1cc(Cl)c2[nH]ccc2c1CN1CCN(CC(F)F)CC1c1ccc(C(=O)O)c(C)c1` (stereo not drawn) displayed an IC50 of 9340 nM.
Next, `CCNc1cc(C2CN(CC(F)F)CCN2Cc2c(OC)cc(C)c3[nH]ccc23)ccc1C(=O)O` (stereo not drawn): 82.7 nM; `COc1cc(C)c2[nH]ccc2c1CN1CCN(CCC(F)(F)F)C[C@@H]1c1ccc(C(=O)O)c(NCC2CC2)c1`: 34900 nM.
Next, `COc1cc(C)c2[nH]ccc2c1CN1CCN(CC(F)F)C[C@H]1c1ccc(C(=O)O)c2c1CCCN2`: 166 nM; `COc1cc(C)c2[nH]ccc2c1CN1CCN(CCC(F)(F)F)C[C@H]1c1ccc(C(=O)O)c(C#N)c1`: 766 nM.
With `COc1cc(C)c2[nH]ccc2c1CN1CCN(CC(F)F)C[C@H]1c1ccc(C(=O)O)c(CO)c1` the figure was 262 nM; with `COc1cc(C)c2[nH]ccc2c1CN1C[C@@H]2C[C@H](F)CN2C[C@H]1c1ccc(C(=O)O)cc1`, 574 nM.
On to `COc1cc(C)c2[nH]ccc2c1CN1C[C@H]2CCCCN2C[C@H]1c1ccc(C(=O)O)cc1`, for which the IC50 was found to be 22.9 nM. Against the preceding compound, the IC50 is about 25-fold lower.
Consider `COc1cc(C)c2[nH]ccc2c1CN1CCN(CC(F)(F)F)CCC1c1ccc(C(=O)O)cc1` (stereo not drawn), for which the half-maximal inhibitory concentration (IC50) turned out to be 9470 nM. Compared with the last compound, the IC50 is about 410-fold higher.
For the compound `COc1cc(C)c2[nH]ccc2c1CN1CCN(S(C)(=O)=O)CCC1c1ccc(C(=O)O)cc1` (stereo not drawn), the 50% inhibitory concentration (IC50) came to 21300 nM.
With `COc1cc(C)c2[nH]ccc2c1CN1CCN(CCC(F)(F)F)C[C@H]1c1ccc(C(=O)O)c(NC2CC2)c1` the figure was 234 nM.
As to `COc1cc(C)c2[nH]ccc2c1CN1CCN(CC(F)F)C[C@H]1c1ccc(C(=O)O)c2c1OCCO2`, the half-maximal inhibitory concentration (IC50) amounted to 343 nM.
Turning to `COc1cc([C@H]2CN(CCC(F)(F)F)CCN2Cc2c(OC)cc(C)c3[nH]ccc23)ccc1C(=O)O`, 27700 nM corresponded to half-maximal inhibition (IC50).
With `COc1cc(C)c2[nH]ccc2c1CN1CCN2CCCC2C1c1ccc(C(=O)O)cc1` (stereo not drawn) the figure was 835 nM; with `COc1cc(C)c2[nH]ccc2c1CN1CCN(CCC(F)(F)F)C[C@@H]1c1ccc(C(=O)O)c(N)c1`, 10200 nM.
With `COc1cc(C)c2[nH]ccc2c1CN1CCN(C)CC1c1ccc(C(=O)O)c(F)c1` (stereo not drawn) the figure was 383 nM.
Turning to `COc1cc(C)c2[nH]ccc2c1CN1C[C@@H]2C[C@@H]3C[C@@H]3N2C[C@@H]1c1ccc(C(=O)O)cc1`, the IC50 amounted to 2080 nM.
On to `COc1cc(C2CN(C)CCN2Cc2c(OC)cc(C)c3[nH]ccc23)ccc1C(=O)O` (stereo not drawn), for which the 50% inhibitory concentration (IC50) turned out to be 415 nM.
Next, `COc1cc(C)c2[nH]ccc2c1CN1C[C@@H]2CCCN2C[C@H]1c1ccc(C(=O)O)cc1`: 1180 nM; `COc1cc(C)c2[nH]ccc2c1CN1CCN(C)CC1c1ccc(C(=O)O)c(O)c1` (stereo not drawn): 276 nM; `COc1cc(C)c2[nH]ccc2c1CN1CCN(CCC(F)(F)F)CC1c1ccc(C(=O)O)c(O)c1` (stereo not drawn): 117 nM.
`COc1cc(C)c2[nH]ccc2c1CN1CCN(C)CC[C@H]1c1ccc(C(=O)O)c(O)c1` returned an IC50 of 37.1 nM.
With `CNc1cc([C@@H]2CN(CCC(F)(F)F)CCN2Cc2c(OC)cc(C)c3[nH]ccc23)ccc1C(=O)O` the figure was 39.8 nM; with `COc1cc(C)c2[nH]ccc2c1CN1CCCN(CCF)CC1c1ccc(C(=O)O)cc1` (stereo not drawn), 291 nM.
Next, `COc1cc(C)c2[nH]ccc2c1CN1CCN(CC(F)F)C[C@@H]1c1ccc(C(=O)O)c(C(F)F)c1`: 1360 nM.
On to `COc1cc(C)c2[nH]ccc2c1CN1C[C@@H]2C[C@@H]3C[C@@H]3N2C[C@H]1c1ccc(C(=O)O)cc1`, for which the half-inhibitory concentration (IC50) was 457 nM.
With `CCC(=O)Nc1cc([C@H]2CN(CC(F)F)CCN2Cc2c(OC)cc(C)c3[nH]ccc23)ccc1C(=O)O` the figure was 118000 nM; with `COc1cc(C)c2[nH]ccc2c1CN1CCN(CCC(F)(F)F)C[C@H]1c1ccc(C(N)=O)c(N)n1`, 37500 nM.
Compound `COc1cc(C)c2[nH]ccc2c1CN1CCN(CC(F)F)C[C@H]1c1ccc(C(=O)O)c(N)c1` registered an IC50 of 58.2 nM.
Next, `COc1cc(C)c2[nH]ccc2c1CN1CCN(CC(F)F)C[C@@H]1c1cnc(C(=O)O)c(N)c1`: 51500 nM; `COc1cc(C)c2[nH]ccc2c1CN1CCN(CC(F)F)C[C@H]1c1ccc(C(=O)O)c(OC2COC2)c1`: 2180 nM.
The compound `COc1cc(C)c2[nH]ccc2c1CN1CCN(CCC(F)(F)F)C[C@@H]1c1ccc(C(=O)O)c(Cl)c1` displayed a half-maximal inhibitory concentration (IC50) of 45400 nM.
With `COc1cc(C)c2[nH]ccc2c1CN1C[C@@H]2C[C@@H](F)CN2C[C@H]1c1ccc(C(=O)O)cc1` the figure was 19000 nM.
Next, `COc1cc(C)c2[nH]ccc2c1CN1CCN(CC(F)F)C[C@H]1c1ccc(C(=O)O)c(N2CCCCC2=O)c1`: 1050 nM; `COc1cc(C)c2[nH]ccc2c1CN1CCN(CCC(F)(F)F)C[C@@H]1c1ccc(C(=O)O)c(NC2CC2)c1`: 17200 nM.
`COc1cc(C)c2[nH]ccc2c1CN1CCN(CC(F)F)C[C@H]1c1ccc(C(=O)O)c(NS(C)(=O)=O)c1`: the midpoint of inhibition, the IC50, lay at 81.7 nM.
Next, `COc1cc(C2CN(CC(F)(F)F)CCN2Cc2c(OC)cc(C)c3[nH]ccc23)ccc1C(=O)O` (stereo not drawn): 691 nM; `COc1cc(C)c2[nH]ccc2c1CN1CCN(CC(F)(F)F)C[C@H]1c1ccc(C(=O)O)c(O)c1`: 282 nM.
With `COc1cc(C)c2[nH]ccc2c1CN1CCN(CC(F)F)C[C@@H]1c1ccc(C(=O)O)c(NCC2COC2)c1` the figure was 68200 nM; with `COc1cc(C)c2[nH]ccc2c1CN1CCN(CC(F)F)C[C@@H]1c1ccc(C(=O)O)c(Cl)c1`, 4080 nM.
With `COc1cc(C)c2[nH]ccc2c1CN1C[C@H]2C[C@H](F)CN2C[C@H]1c1ccc(C(=O)O)cc1` the figure was 223 nM.
`COc1cc(C)c2[nH]ccc2c1CN1CCN(CC(F)F)C[C@@H]1c1ccc(C(=O)O)c(NC2COC2)c1` returned an IC50 of 5580 nM. Compared with the last compound, the IC50 is about 25-fold higher.
With `COc1cc(C)c2[nH]ccc2c1CN1CCN(CC(F)(F)F)C[C@H]1c1ccc(C(=O)O)c(N)c1` the figure was 36.4 nM; with `COc1cc(C)c2[nH]ccc2c1CN1CCN(CCC(F)(F)F)C[C@H]1c1ccc(C(=O)O)c(N2CCCC2=O)c1`, 1240 nM; with `COc1cc(C)c2[nH]ccc2c1CN1CCN(CCC(F)(F)F)C[C@@H]1c1ccc(C(N)=O)c(N)n1`, 102000 nM.
Next, `COc1cc(C)c2[nH]ccc2c1CN1CC[C@@H]2CCCN2CC1c1ccc(C(=O)O)cc1` (stereo partly drawn): 6980 nM.
With `COc1cc(C)c2[nH]ccc2c1CN1CCN(CC(F)F)C[C@H]1c1ccc(C(=O)O)c(Cl)c1` the figure was 497 nM; with `COc1cc(C)c2[nH]ccc2c1CN1CCN(CC(F)F)CC1c1ccc(C(=O)O)n2ccnc12` (stereo not drawn), 8140 nM; with `COc1cc(C)c2[nH]ccc2c1CN1C[C@@H]2CC[C@H](C)N2C[C@H]1c1ccc(C(=O)O)cc1`, 760 nM.
Compound `COc1cc(C)c2[nH]ccc2c1CN1CCN(CC(F)F)CC1c1ccc(C(=O)O)c(C(F)F)c1` (stereo not drawn) gave a concentration for half-maximal inhibition (IC50) of 857 nM. The IC50 values of the last two compounds are within 1.5-fold of each other.
